In a collection of fitness landscapes (doi:10.1126/science.1257360) one finds enrichment ratio data, which are given here for 153 variants.

Some of the results follow. Where only a bound is given, the exact number is not on record here.

To fix the notation:
B1: PhoQ; a variant is named by its letters at X, in order, P23837 (parent)
chain: MKKLLRLFFPLSLRVRFLLATAAVVLVLSLAYGMVALIGYSVSFDKTTFRLLRGESNLFYTLAKWENNKLHVELPENIDKQSPTMTLIYDENGQLLWAQRDVPWLMKMIQPDWLKSNGFHEIEADVNDTSLLLSGDHSIQQQLQEVREDDDDAEMTHSVAVNVYPATSRMPKLTIVVVDTIPVELKSSYMVWSWFIYVLSANLLLVIPLLWVAAWWSLRPIEALAKEVRELEEHNRELLNPATTRELTSLVRNLNRLLKSERERYDKYRTTLTDLTHSLKTPLXXLQXXLRSLRSEKMSVSDAEPVMLEQISRISQQIGYYLHRASMRGGTLLSRELHPVAPLLDNLTSALNKVYQRKGVNISLDISPEISFVGEQNDFVEVMGNVLDNACKYCLEFVEISARQTDEHLYIVVEDDGPGIPLSKREVIFDRGQRVDTLRPGQGVGLAVAREITEQYEGKIVAGESMLGGARMEVIFGRQHSAPKDE

In the assay the parent is B1. Kind of assay: enrichment ratio after two sorts for PhoP signalling (ratio (wild type AVST 3.29)); higher = more functional. The conditions noted are these: with PhoP (E. coli).
Regarding MDSQ, the enrichment ratio is ≤ 0.25. With QLKC the figure was ≤ 0.25.

HDHD: the enrichment ratio is ≤ 0.25.

As for DEPE, the enrichment ratio was ≤ 0.25.

For the variant KTKV, the enrichment ratio was ≤ 0.25. With LSWN the figure was ≤ 0.25; with TSSV, 20. With RNGF the figure was ≤ 0.25; with LCSF, ≤ 0.25.

For the variant HHLS, the enrichment ratio was ≤ 0.25. Take AAPR: the enrichment ratio is ≤ 0.25. With DQVY the figure was ≤ 0.25; with ANTE, ≤ 0.25; with VDYQ, ≤ 0.25. To VSNW belongs ≤ 0.25; to HGER, ≤ 0.25. To SDQK belongs ≤ 0.25. With YSGY, the enrichment ratio was ≤ 0.25. Take CMFP: the enrichment ratio is ≤ 0.25. To RKAD belongs ≤ 0.25. As for LSAS, the enrichment ratio is ≤ 0.25. With PAII the figure was ≤ 0.25; with LYNF, ≤ 0.25. With RHEH, the enrichment ratio was ≤ 0.25. To KFLQ belongs ≤ 0.25; to KSMA, ≤ 0.25; to TSEN, ≤ 0.25.

As to AFRI, the enrichment ratio was 0.554. To GCRI belongs ≤ 0.25. ECLW: the enrichment ratio is ≤ 0.25.

Regarding RPCC, the enrichment ratio is ≤ 0.25. To WLTN belongs ≤ 0.25; to PIAW, ≤ 0.25; to HLHN, ≤ 0.25.

Take KFLM: the enrichment ratio was ≤ 0.25. With WLYG the figure was ≤ 0.25; with LAQN, ≤ 0.25.

Take LNPG: the enrichment ratio is ≤ 0.25. For the variant RCDH, the enrichment ratio is ≤ 0.25. As for LEKR, the enrichment ratio is ≤ 0.25. With QVQP the figure was ≤ 0.25; with EARR, ≤ 0.25; with HSEF, ≤ 0.25. As to TLVM, the enrichment ratio was ≤ 0.25.

For the variant QLNA, the enrichment ratio is ≤ 0.25. To SMRN belongs ≤ 0.25; to YATF, ≤ 0.25. With EYKF the figure was ≤ 0.25.

On to NPIQ, for which the enrichment ratio was ≤ 0.25. With KRYT the figure was ≤ 0.25; with FYIT, ≤ 0.25.

As to DIDI, the enrichment ratio was ≤ 0.25. Take GIEW: the enrichment ratio was ≤ 0.25. To HPKF belongs ≤ 0.25; to QTTH, ≤ 0.25. To AQHD belongs ≤ 0.25. To QRDN belongs ≤ 0.25; to DVPN, ≤ 0.25; to DCRM, ≤ 0.25. Turning to LPND, the enrichment ratio was ≤ 0.25. For the variant DTQS, the enrichment ratio is ≤ 0.25. With NGRP the figure was ≤ 0.25; with DLAE, ≤ 0.25.

YNWI: the enrichment ratio is ≤ 0.25. To TKSL belongs 8.47; to YYDV, ≤ 0.25. As to SFSE, the enrichment ratio is ≤ 0.25.

Take LAKP: the enrichment ratio was ≤ 0.25. Regarding IACC, the enrichment ratio was ≤ 0.25. With MISV the figure was 4.88; with SGRL, ≤ 0.25; with KPHT, ≤ 0.25. To YALH belongs 5.84; to YVCG, ≤ 0.25.

In the case of NTVS, the enrichment ratio is ≤ 0.25. With LKCG the figure was ≤ 0.25; with GQLP, ≤ 0.25. To PSAQ belongs ≤ 0.25; to RHLW, ≤ 0.25; to DAAQ, ≤ 0.25. Take ESQC: the enrichment ratio is ≤ 0.25. With TWFP the figure was ≤ 0.25. With PFGI the figure was ≤ 0.25; with RENT, ≤ 0.25; with NLGT, ≤ 0.25. To RCNF belongs ≤ 0.25; to RAPR, ≤ 0.25; to TFSF, ≤ 0.25. As to VILQ, the enrichment ratio is ≤ 0.25. With NECM the figure was 28.2; with KFGQ, ≤ 0.25; with LIFH, 0.405. With DVLL the figure was ≤ 0.25. With GGIV, the enrichment ratio amounted to 2.44. As to AFGF, the enrichment ratio is ≤ 0.25. To FHPT belongs ≤ 0.25; to EINS, ≤ 0.25. To HQTV belongs ≤ 0.25; to VRTP, ≤ 0.25; to FMTE, ≤ 0.25.

Regarding AEKC, the enrichment ratio was ≤ 0.25.

In the case of GFYA, the enrichment ratio is ≤ 0.25. Regarding YLHN, the enrichment ratio was ≤ 0.25. With AAIF the figure was 0.484; with SIQH, 5.79; with RYKS, ≤ 0.25. Regarding TNFP, the enrichment ratio was ≤ 0.25. With QLPN the figure was ≤ 0.25. With RYIW the figure was ≤ 0.25; with REIN, ≤ 0.25. With INKN the figure was ≤ 0.25.

Regarding TFIP, the enrichment ratio was ≤ 0.25. To RAAM belongs ≤ 0.25; to DCGR, ≤ 0.25.

With QQHD, the enrichment ratio is ≤ 0.25. With NHNL the figure was ≤ 0.25; with DVRL, ≤ 0.25. For QETV, the enrichment ratio is ≤ 0.25. To VGNS belongs ≤ 0.25; to NEFY, ≤ 0.25; to MLGI, ≤ 0.25.

As to IRSE, the enrichment ratio is ≤ 0.25. With YGLS the figure was 7.31; with FSWA, ≤ 0.25; with HICV, ≤ 0.25. To MEYL belongs 3.47; to TDWQ, ≤ 0.25. With NMSQ the figure was ≤ 0.25; with HYMK, ≤ 0.25. For the variant RQVA, the enrichment ratio is ≤ 0.25. To VGRE belongs ≤ 0.25; to FWNW, ≤ 0.25. To TPNI belongs ≤ 0.25; to FINC, ≤ 0.25; to EAHY, ≤ 0.25.

With GHIN, the enrichment ratio was ≤ 0.25. Consider TTIR, for which the enrichment ratio is ≤ 0.25.

Regarding MWGD, the enrichment ratio was ≤ 0.25. With SENM the figure was ≤ 0.25; with SFFE, ≤ 0.25; with TMDW, ≤ 0.25. With LQFN, the enrichment ratio is ≤ 0.25. With SKFF the figure was ≤ 0.25; with KWIH, ≤ 0.25. To TSFC belongs 2.12; to RVAN, ≤ 0.25.

Regarding ISYQ, the enrichment ratio was ≤ 0.25.

With SVFP, the enrichment ratio is ≤ 0.25. Regarding EDHN, the enrichment ratio is ≤ 0.25. To RRCI belongs ≤ 0.25. To KFKG belongs ≤ 0.25; to MVGY, ≤ 0.25. With DHVF the figure was ≤ 0.25.
